Test results as given in the supplement of paper PMC9433436.
± gives the standard deviation of the averaged measurements. The full ranking holds about 4,100 sequences; the median of “relative kcat/Km (krel) vs genomic leader AAAGAU” is about 1.7, and the highest 2% start at about 6.5. Only a part is listed here, and it is no random draw.

Biological target: T1, E. coli RNase P holoenzyme (M1 P RNA + rnpA protein) (UniProt P0A7Y8)
T1 sequence: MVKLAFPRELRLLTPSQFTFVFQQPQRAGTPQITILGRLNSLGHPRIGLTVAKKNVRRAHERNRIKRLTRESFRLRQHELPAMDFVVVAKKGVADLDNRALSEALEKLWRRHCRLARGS
Assay: relative kcat/Km (krel) vs genomic leader AAAGAU (relative (reference leader = 1)); higher = faster RNase P cleavage
Protocol: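 HTS-Kin: a pool of ptRNA-Met (21C construct) with all 4096 combinations of 5' leader nucleotides N(-6) to N(-1) was processed in vitro by E. coli RNase P (P RNA + rnpA/C5 protein) under multiple-turnover conditions at 37 C, pH 8, 17.5 mM MgCl2. Residual substrate was Illumina-sequenced at several fractions reacted, and relative kcat/Km (krel) was computed by internal competition kinetics, calibrated to the genomic leader (AAAGAU = 1). The listed hexamer is the varied N(-6)..N(-1) leader (DNA letters), and it sits between a fixed 5' stem-loop flank (GCAUGCACGAAAGUGCGUGCUAUGAA) and the mature tRNA-Met starting GGCUACGUAGCUCAGUUGG. Two technical replicates are averaged.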

[1] = fraction of substrate reacted: ~9-10% (9.79% repeat 1, 9.1% repeat 2)
[2] = fraction of substrate reacted: ~13-16% (15.68% repeat 1, 13.17% repeat 2)
[3] = fraction of substrate reacted: ~26-29% (28.66% repeat 1, 26.4% repeat 2)

| Sequence | relative kcat/Km [1] | relative kcat/Km [2] | relative kcat/Km [3] |
| --- | --- | --- | --- |
| CTAGTA | 1.32 ± 0.52 | 0.841 ± 0.56 | 1.69 ± 0.87 |
| CCGAGT | 0.9 ± 0.24 | 0.883 ± 0.22 | 0.769 ± 0.58 |
| CACACG | 0.685 ± 0.67 | – | 2.19 ± 0.16 |
| CTTGGA | 1.23 ± 1.1 | 1.2 ± 0.45 | 1.15 ± 0.8 |
| CATCCA | 1.79 ± 0.41 | 1.4 ± 0.24 | 2.42 ± 1.1 |
| TAAGGA | – | – | 1.04 ± 0.83 |
| CCTCGA | 1.95 ± 0.97 | 2.42 ± 0.15 | 3.44 ± 0.84 |
| CCCTAT | 3.137 ± 0.006 | 5.47 ± 1.1 | 7.09 ± 3.1 |
| GCGTCC | 1.32 ± 0.099 | 1.73 ± 0.52 | 2.64 ± 0.41 |
| GGACAC | 2.78 ± 2.7 | 2.55 ± 0.57 | 3.35 ± 1.3 |
| ATCTAC | 4.97 ± 1.4 | 6.58 ± 2 | 9.08 ± 4.5 |
| AGATTG | – | – | 1.32 ± 0.26 |
| ACTGCC | 1.78 ± 0.31 | 1.06 ± 0.47 | 1.7 ± 0.68 |
| CCAGAA | 1.22 ± 0.24 | 1.15 ± 0.94 | 1.77 ± 0.29 |
| CTAGAG | 1.59 ± 0.97 | 0.748 ± 0.22 | 1.43 ± 0.48 |
| AATCAA | 2.46 ± 1.6 | 2.43 ± 0.28 | 3.38 ± 1.1 |
| CGTGTT | 0.616 ± 0.59 | 1.06 ± 0.22 | 1.47 ± 0.9 |
| GTGTTC | 1.05 ± 0.15 | 0.422 ± 0.072 | 1.02 ± 0.17 |
| GCTCAC | 2.68 ± 1.5 | 2.67 ± 0.68 | 3.5 ± 1 |
| TATATT | 3.12 ± 1.4 | 3.21 ± 0.26 | 4.67 ± 2.2 |
| ACCTCT | 2.01 ± 0.77 | 2.54 ± 0.84 | 3.48 ± 1.1 |
| AGATCC | 2.035 ± 0.02 | 2.31 ± 0.73 | 3.01 ± 1.1 |
| CATAGT | – | – | 1.22 ± 0.91 |
| GGATTT | 1.77 ± 0.24 | 1.91 ± 0.31 | 2.37 ± 1.3 |
| GTTACG | – | 0.734 ± 0.59 | 2.38 ± 0.098 |
| AAGGAC | 0.653 ± 0.52 | 0.918 ± 0.69 | 1.12 ± 0.48 |

| Sequence | relative kcat/Km [1] | relative kcat/Km [2] | relative kcat/Km [3] |
| --- | --- | --- | --- |
| TGTCAT | 3.5 ± 1.3 | 4.28 ± 1.1 | 6.84 ± 3.2 |
| TCTTCC | 2.29 ± 0.2 | 2.79 ± 1.1 | 3.55 ± 1.5 |
| CCGCGC | 2.23 ± 0.85 | 1.53 ± 0.98 | 1.76 ± 0.15 |
| CCATTT | 3.01 ± 0.74 | 3.3 ± 0.78 | 3.99 ± 1.6 |
| TGGTCA | – | 0.637 ± 0.51 | 0.937 ± 0.37 |
| GAATAA | 2.88 ± 0.83 | 3.15 ± 0.5 | 4.29 ± 1.5 |
| GAAATA | 1.5 ± 1.3 | 1.4 ± 0.17 | 1.59 ± 0.32 |
| GTAGTG | – | – | 0.911 ± 0.15 |
| CGAGAT | 1.72 ± 1.4 | 1.26 ± 0.15 | 2.36 ± 0.57 |
| CTTTTG | – | – | 1.2 ± 0.39 |
| GGACAA | 0.879 ± 0.43 | 1.34 ± 0.47 | 2.59 ± 0.96 |
| ATATGG | – | – | 1.03 ± 0.96 |
| GCGAAC | 1.49 ± 0.72 | 1.56 ± 0.17 | 2.05 ± 0.32 |
| TTGTTG | – | – | 0.827 ± 0.79 |
| AACTGC | 1.95 ± 0.41 | 2.93 ± 0.36 | 3.68 ± 1.1 |
| AATGGA | – | – | 1.6 ± 1.1 |
| GTCCTA | 3.11 ± 1.4 | 3.47 ± 0.34 | 4.9 ± 1.2 |
| GCGACA | 0.951 ± 0.19 | 1.12 ± 0.15 | 1.41 ± 0.28 |
| GGGTGA | – | – | 0.657 ± 0.077 |
| CGCTTC | 2.21 ± 0.18 | 2.83 ± 1.1 | 4.57 ± 1.3 |
| GAGATG | – | – | 0.905 ± 0.069 |
| ATTCGC | 2.81 ± 0.77 | 3.32 ± 0.53 | 4.55 ± 1.5 |
| CAACGA | 1.26 ± 0.31 | 1.57 ± 0.31 | 2.61 ± 0.73 |
| GCGATC | 1.7 ± 1.3 | 1.62 ± 0.72 | 1.7 ± 0.24 |
| GAGAGC | 1.56 ± 0.32 | 1.76 ± 0.13 | 2.08 ± 0.19 |
| GGAACA | 1.16 ± 0.49 | 1.39 ± 0.3 | 1.53 ± 0.0065 |

| Sequence | relative kcat/Km [1] | relative kcat/Km [2] | relative kcat/Km [3] |
| --- | --- | --- | --- |
| TCTCGC | 2.86 ± 0.37 | 3.63 ± 0.6 | 4.81 ± 1.6 |
| CGGCTT | 0.767 ± 0.043 | 0.707 ± 0.2 | 0.573 ± 0.28 |
| GTTACT | 1.81 ± 0.53 | 2.06 ± 0.25 | 3.21 ± 1.5 |
| CTCGCG | 2.22 ± 1.4 | 1.19 ± 1.2 | 3.19 ± 1 |
| GCCAGT | – | – | 1.07 ± 0.27 |
| CGCGAT | 1.45 ± 0.44 | 1.95 ± 0.54 | 2.61 ± 0.9 |
| AAATCC | 2.19 ± 1.6 | 1.69 ± 0.46 | 1.73 ± 0.1 |
| AAATGC | 2.72 ± 0.1 | 2.57 ± 0.88 | 2.84 ± 1.1 |
| TTTGAC | 2.96 ± 1.2 | 3.63 ± 0.8 | 5.51 ± 2.6 |
| CCCAAG | 1.92 ± 1.8 | 1.745 ± 0.017 | 3.56 ± 0.87 |
| ACGAAT | 1.52 ± 0.086 | 2.48 ± 0.9 | 3.45 ± 1.6 |
| TACGTA | 2.14 ± 0.53 | 2.47 ± 0.38 | 3.67 ± 1.2 |
| GCCCTA | 2.3 ± 0.98 | 1.641 ± 0.0073 | 3.56 ± 0.7 |
| GACTGA | 2.61 ± 1.4 | 3.21 ± 0.64 | 5.15 ± 1.4 |
| ATACGT | 0.722 ± 0.057 | 1.92 ± 1.6 | – |
| CTAAGC | 1.65 ± 0.3 | 2.19 ± 0.16 | 2.47 ± 0.38 |
| AAAGTT | – | 0.945 ± 0.91 | 0.442 ± 0.33 |
| TACCCT | 2.55 ± 1.1 | 2.63 ± 0.06 | 3.63 ± 1.3 |
| ATCTCC | 3.67 ± 0.85 | 4.83 ± 1.4 | 6.39 ± 2.9 |
| GTAGCC | 1.99 ± 0.12 | 1.48 ± 0.66 | 2.13 ± 0.51 |
| ATGACC | 1.45 ± 0.43 | 1.53 ± 0.06 | 1.7 ± 0.27 |
| CATCTA | 2.59 ± 1.4 | 1.96 ± 0.57 | 2.74 ± 0.76 |
| AATCCC | 2.14 ± 1.8 | – | 1.33 ± 0.76 |
| TTAGTA | 1.41 ± 0.75 | 1.51 ± 0.63 | 2.24 ± 0.85 |
| CACGCG | – | 0.687 ± 0.39 | 2.17 ± 0.21 |
| CCCGAG | 1.48 ± 0.82 | 0.888 ± 0.25 | 3.16 ± 0.072 |

| Sequence | relative kcat/Km [1] | relative kcat/Km [2] | relative kcat/Km [3] |
| --- | --- | --- | --- |
| TTGTGA | 1.2 ± 0.026 | 1.57 ± 0.66 | 2.36 ± 0.66 |
| TCCTAT | 4.03 ± 0.47 | 6.02 ± 0.85 | 9.38 ± 4.8 |
| ACCGGA | – | – | 0.635 ± 0.44 |
| CAAAGT | – | 1.05 ± 0.97 | 1.45 ± 1.4 |
| TATTTT | 2.99 ± 0.97 | 3.75 ± 0.39 | 5.41 ± 2.6 |
| CAGAAG | – | – | 1.88 ± 1 |
| CCAATC | 1.21 ± 0.17 | – | 1.87 ± 0.68 |
| TATCTT | 2.42 ± 0.64 | 3.1 ± 0.32 | 4.34 ± 2.3 |
| GGACTG | – | – | 1.1 ± 0.086 |
| CTTTCG | 1.29 ± 1.1 | 0.933 ± 0.53 | 1.5 ± 0.051 |
| CAAAGC | 1.07 ± 0.26 | 1.12 ± 1.1 | 1.94 ± 1.2 |
| GTTTTG | – | 0.351 ± 0.17 | 1.74 ± 0.18 |
| GCACGC | – | – | 1.29 ± 1.2 |
| CACGTG | – | – | 1.163 ± 0.0097 |
| ACCTAC | 3.44 ± 1.2 | 4.53 ± 0.77 | 5.77 ± 2.1 |
| CATGGG | – | – | 0.554 ± 0.53 |
| ATTTGA | 3.01 ± 0.59 | 4.02 ± 0.65 | 5.74 ± 2.1 |
| ATGGCA | – | 1.34 ± 1.2 | 1.01 ± 0.3 |
| TACACC | 2.91 ± 0.42 | 4.39 ± 1.3 | 5.78 ± 2.5 |
| CCACGA | 2.55 ± 1.9 | 1.62 ± 0.19 | 2.52 ± 0.18 |
| GGGTTC | 0.445 ± 0.035 | 0.916 ± 0.37 | 0.82 ± 0.16 |
| CCATCT | 2.12 ± 1.5 | 1.53 ± 1.1 | 2.64 ± 0.42 |
| ATCCGT | – | – | 2.3 ± 2.1 |
| GGCTCC | 2.56 ± 0.54 | 1.96 ± 0.23 | 2.25 ± 0.7 |
| TCGGTG | 0.643 ± 0.43 | – | 0.367 ± 0.27 |
| GTTTTC | 2.55 ± 1.7 | 2.53 ± 0.4 | 3.41 ± 0.9 |
